Test results reported in the supplement of paper PMC8728848.
Some of the results follow.

Assays:
Experiment in all cases: glycan array binding signal (z-score within array); higher = stronger binding
Conditions in all cases: glycan notation: IUPAC condensed, linker removed
[1] = biological target: Gal3S(b1-3)[Fuc(a1-4)]GlcNAc
Procedure, shortened: (§1)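 Glycan array binding is given as a within-array Z-score, which can be read as non-binding when negative. The arrays, 3228 of them, came from the Consortium for Functional Glycomics database and were retained only where the protein sequence was available. Z-scores were averaged across arrays of the same protein sequence at different concentrations or buffers and across linkers.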

[2] = biological target: Gal3S(b1-4)Glc
Procedure, shortened: as §1

[3] = biological target: Gal3S(b1-4)Glc6S
Procedure, shortened: as §1

[4] = biological target: Gal3S(b1-4)GlcNAc
Procedure, shortened: as §1

[5] = biological target: Gal3S(b1-4)[Fuc(a1-3)]Glc6S
Procedure, shortened: as §1

[6] = biological target: Gal3S(b1-4)[Fuc(a1-3)]GlcNAc
Procedure, shortened: as §1

[7] = biological target: Gal3S(b1-4)[Fuc(a1-3)]GlcNAc6S
Procedure, shortened: as §1

[8] = biological target: Gal3S4S(b1-4)GlcNAc
Procedure, shortened: as §1

[9] = biological target: Gal3S6S(b1-4)GlcNAc
Procedure, shortened: as §1

[10] = biological target: Gal3S6S(b1-4)GlcNAc6S
Procedure, shortened: as §1

[11] = biological target: Gal4S(b1-4)GlcNAc
Procedure, shortened: as §1

[12] = biological target: Gal4S6S(b1-4)GlcNAc
Procedure, shortened: as §1

[13] = biological target: Gal6P(b1-4)GlcNAc
Procedure, shortened: as §1

[14] = biological target: Gal6S(b1-3)GlcNAc
Procedure, shortened: as §1

[15] = biological target: Gal6S(b1-3)GlcNAc6S
Procedure, shortened: as §1

[16] = biological target: Gal6S(b1-4)Glc
Procedure, shortened: as §1

[17] = biological target: Gal6S(b1-4)Glc6S
Procedure, shortened: as §1

[18] = biological target: Gal6S(b1-4)GlcNAc
Procedure, shortened: as §1

[19] = biological target: Gal6S(b1-4)GlcNAc6S
Procedure, shortened: as §1

[20] = biological target: GalNAc(a1-3)Gal
Procedure, shortened: as §1

[21] = biological target: GalNAc(a1-3)GalNAc
Procedure, shortened: as §1

[22] = biological target: GalNAc(a1-3)GalNAc(b1-3)Gal(a1-4)Gal(b1-4)Glc
Procedure, shortened: as §1

[23] = biological target: GalNAc(a1-3)GalNAc(b1-3)Gal(a1-4)Gal(b1-4)GlcNAc
Procedure, shortened: as §1

[24] = biological target: GalNAc(b1-3)Gal
Procedure, shortened: as §1

[25] = biological target: GalNAc(b1-3)Gal(a1-4)Gal(b1-4)GlcNAc
Procedure, shortened: as §1

[26] = biological target: GalNAc(b1-3)Gal(a1-4)Gal(b1-4)GlcNAc(b1-3)Gal(b1-4)Glc
Procedure, shortened: as §1

[27] = biological target: GalNAc(b1-3)Gal(a1-6)Gal(b1-4)Glc
Procedure, shortened: as §1

[28] = biological target: GalNAc(b1-3)GalNAc
Procedure, shortened: as §1

[29] = biological target: GalNAc(b1-3)GlcNAc
Procedure, shortened: as §1

[30] = biological target: GalNAc(b1-4)Gal(b1-4)Glc
Procedure, shortened: as §1

B1: CC1G-10077 (Coprinopsis cinerea), A8NDT7 (protein)
chain: MALNEGVYWIRNSRFTNKVLDLDAANVAKGTSILDFNEHGTFNENHNQLWIVERFQSRDTYLIRSVHSNLVLDLSQGLSANGTPILCWTQHGGTNQQWRIEWVKDDNKTPLYRIVSVATGTAISHNEDDSSAYTVAWSVDDGPKQLWSFDPFVTPLLYRLRVKSTSRVLDLAAASADNGTLALAWEQHTAITKRNQLWWLPYRSGAEEYTIQCLETSTVADLSGGNSGNGTPIYGWQSHGGRNQQWKFEPTSDSGDYYHIKNVEGGSVMDAYMNDSQKRVGGWSNNGGDNQKWLLDPLPSPGPGWVLIQNGGTGKFLCSTPSGDIGTADGPETVYDYSVQWRFIQREYTGVYHVVNRATGAYLRQIGTSMPSIGLAEENDDELKDWWMLETYDNSEIGLASIISRWTGNVLDHYGGVSVQALDNNTENSYRSWAIIPARDWLTSFSLVNGQGGLCLAAQYAREETRLSTTANVNDFHAQWVFRKPSGSSGYTIQNKYNNHYVGGTSARWELVVCCNKYFGIRNTSTQKYLAIEDGQVTFQDQDMTDRKQCWELCSGRATDTSGNDYDLIYMDDDLLEVMIPWVGDKQGDLKHYIEKRATKKPPKDKGGWQLPAAGLIKKPKFNDIRQLLQELIEQWEWDVVNEEREQIQTLVSIDEAEARRLLGRRPHPDIVAAYQRSRSSTLFRIDRQGYFNIAGDRYVNIQGQYGDDSYFHIALPVGVRFGREQIRRFLRDSLDRSTSVTITPTTCKPPSGGPDYNRDPDSDGDNSWIKWTIAVVGTSAIKHSEL
glycan array binding signal (z-score) [1]: -0.438 | glycan array binding signal (z-score) [2]: -0.433 | glycan array binding signal (z-score) [3]: -0.453 | glycan array binding signal (z-score) [4]: -0.495 | glycan array binding signal (z-score) [5]: -0.31 | glycan array binding signal (z-score) [6]: -0.451 | glycan array binding signal (z-score) [7]: -0.528 | glycan array binding signal (z-score) [8]: -0.534 | glycan array binding signal (z-score) [9]: -0.418 | glycan array binding signal (z-score) [10]: -0.371 | glycan array binding signal (z-score) [11]: -0.404 | glycan array binding signal (z-score) [12]: -0.493 | glycan array binding signal (z-score) [13]: -0.493 | glycan array binding signal (z-score) [14]: -0.094 | glycan array binding signal (z-score) [15]: -0.314 | glycan array binding signal (z-score) [16]: 0.062 | glycan array binding signal (z-score) [17]: 0.111 | glycan array binding signal (z-score) [18]: -0.049 | glycan array binding signal (z-score) [19]: -0.429 | glycan array binding signal (z-score) [20]: 0.671 | glycan array binding signal (z-score) [21]: -0.162 | glycan array binding signal (z-score) [22]: 0.152 | glycan array binding signal (z-score) [23]: 0.309 | glycan array binding signal (z-score) [24]: 1.42 | glycan array binding signal (z-score) [25]: -0.066 | glycan array binding signal (z-score) [26]: 2.66 | glycan array binding signal (z-score) [27]: 1.07 | glycan array binding signal (z-score) [28]: -0.165 | glycan array binding signal (z-score) [29]: 1.23 | glycan array binding signal (z-score) [30]: -0.482
